Experimental data reported in the supplement of paper PMC10126150.
Sequences with one replicate were seen in a single cluster, so their values are uncertain.

Tested on: ATP
Experiment: switch fluorescence ratio, 500 uM ATP over buffer (Cy3 cluster intensity, sum of 5 cycles each) (fold (ratio)); higher = stronger signal-on switching upon ATP binding; sequences stand for … in TCGTCGGCAGCGTCAGATGTGTATAAGAGACAGTTTTTTTTTTTTTTTTTTTTTTTTT…TC
Settings: aptamer strand: ATP DNA aptamer (quencher-CACCTGGGGGAGTATTGCGGAGGAAGG + anchor), 100 nM annealed; ATP concentration: 500 uM; one replicate
In short: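 The quencher-labelled ATP aptamer, at 100 nM, was annealed to Cy3-labelled switching-strand clusters on a modified Illumina MiSeq flow-cell. The clusters were imaged in selection buffer, then after 15 min with 500 uM ATP at 22 °C, and this buffer/ATP cycle ran five times with NaOH stripping and re-annealing between runs. Per-cluster fluorescence ratios, summed target-cycle over summed buffer-cycle Cy3 intensity, were averaged per switch-domain sequence. Clusters outside 100-1000 RFU were excluded.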
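Note: ATP exposure 15 min at 22 °C before imaging.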

Sequence	switch fluorescence ratio
CATTAACGCG	0.995
CATTAATACG	1.04
CATTAATTCG	0.997
CATTAGCAAA	1.35
CATTAGTACT	0.986
CATTAGTAGT	0.995
CATTATATTA	0.97
CATTATGAG	0.985
CATTCAAACC	1.09
CATTCAACCG	1.15
CATTCACAGG	1.22
CATTCACTCC	1.17
CATTCAGCCA	1.02
CATTCATATT	1.02
CATTCATGTA	0.962
CATTCATTT	0.992
CATTCCACCG	2.33
CATTCCCGGA	0.985
CATTCGACAG	1.04
CATTCGGCCA	1.03
CATTCTAAAA	1.01
CATTCTTAGC	1.05
CATTGCAACA	1.05
CATTGGAGAT	1
CATTGGGTAA	0.986
CATTGGTGAC	1.02

Sequence	switch fluorescence ratio
CATTGTATTT	0.965
CATTGTCAAT	1.05
CATTGTGGCT	0.993
CATTGTTAGA	0.974
CATTTACCG	1.05
CATTTAGCAG	1.05
CATTTAGGTG	1.14
CATTTCTCGA	1.03
CATTTGGCTT	1.02
CATTTTATTC	1.01
CATTTTGGAA	1.02
CCAAAAATGC	1.29
CCAAAACTAG	1.02
CCAAAAGTCA	1.06
CCAAACATTC	1.09
CCAAAGCTCT	1.59
CCAAAGCTTT	1.33
CCAAAGTGAC	1.97
CCAAATCACA	1.05
CCAACCCTTG	1.05
CCAACGGTAC	3.87
CCAACTCTCC	1.26
CCAAGAGAAA	1.06
CCAAGAGTAT	1.04
CCAAGCGTAT	1.25
CCAAGTAAAC	2.84

Sequence	switch fluorescence ratio
CCAATAATTT	0.987
CCAATATGCA	1.02
CCAATATGGA	1.05
CCAATCCAAG	1.05
CCAATGGGTT	0.978
CCAATGTCAA	1.29
CCAATTGGCC	0.964
CCAATTTTCC	1.09
CCACAAACAT	1.17
CCACAATAT	3.1
CCACAGCCTA	1.45
CCACAGCTGT	1.24
CCACAGTCCC	1.11
CCACAGTTAA	1.12
CCACATATAG	1.4
CCACCTGCAT	4.84
CCACGCTAAA	2.02
CCACGGGGAG	1.13
CCACGGTGGG	1.03
CCACGTATCA	1.02
CCACTAAAT	1.11
CCACTACGGT	1.08
CCACTGCTGG	1.12
CCACTGTGAG	1.08
CCACTTGTCG	1.08
CCACTTTAAA	1.06

Sequence	switch fluorescence ratio
CCAGAAACAA	1.09
CCAGACCGTA	1.03
CCAGACGTGG	1.01
CCAGAGACGC	1.03
CCAGAGTAGC	1.14
CCAGATAAGA	0.962
CCAGCAGCG	1.05
CCAGCCTGAA	1
CCAGCGAAAG	1.06
CCAGCGGTCA	1.04
CCAGCTATGG	1.07
CCAGGAATGT	1.01
CCAGGATACC	1.05
CCAGGGACC	1.03
CCAGGGGCCG	1.03
CCAGGGGGCG	0.976
CCAGGTCTGG	0.981
CCAGGTGTAC	1.11
CCAGGTTTTC	0.986
CCAGTCAAGG	0.997
CCAGTCCGCC	1.98
CCAGTGTT	1.02
CCAGTTATTT	1
CCAGTTCGGG	1.04
CCAGTTTTA	0.966
CCATACGCTA	2.8

Sequence	switch fluorescence ratio
CCATAGGTAG	1.02
CCATAGTACA	1.11
CCATATGCCT	1
CCATCATCGG	1.01
CCATCATGTT	0.984
CCATCCCTGA	1
CCATCGCCGA	1.09
CCATCTCAGA	0.994
CCATGACAAC	1.02
CCATGACGCG	1.22
CCATGAGCTA	1.55
CCATGATTTT	1.03
CCATGCGCCA	1.6
CCATGCGGGG	1.07
CCATGCTCGG	1
CCATGGATCG	0.983
CCATGGGATG	1.01
CCATGTAAT	1.03
CCATGTCGCC	1.03
CCATGTGGGC	1.06
CCATGTGTTA	1
CCATGTTAGA	0.939
CCATGTTGTT	0.973
CCATTAAGTT	1.02
CCATTACCGA	0.998
CCATTACTA	1

Sequence	switch fluorescence ratio
CCATTCCGTC	1.05
CCATTGGCGA	1.15
CCATTGTCAG	0.997
CCATTTAG	0.989
CCATTTGGAT	0.976
CCCAACTAAT	1.01
CCCAACTATG	1.08
CCCAACTGGA	1.02
CCCAAGGAGA	1.05
CCCAGATAGG	1.03
CCCAGGGACT	1.32
CCCATACTTC	1.4
CCCATGCCGA	1.03
CCCATGCTTT	1.06
CCCATTTCTG	0.982
CCCCACGAAG	1.05
CCCCAGACGT	1.58
CCCCAGCTTT	1.48
CCCCATCGTA	1.01
CCCCCACCAT	1.06
CCCCCAGTGT	3.5
CCCCCGGGA	1.73
CCCCCTAAAT	1.88
